Experimental data: the supplement of paper PMC10126150
Values marked as one replicate rest on one cluster of the flow cell; about a third of the high ones do not repeat.

system: ATP; test: switch fluorescence ratio, 500 uM ATP over buffer (Cy3 cluster intensity, sum of 5 cycles each) (fold (ratio)); higher = stronger signal-on switching upon ATP binding; sequences stand for … in TCGTCGGCAGCGTCAGATGTGTATAAGAGACAGTTTTTTTTTTTTTTTTTTTTTTTTT…TC; settings: aptamer strand: ATP DNA aptamer (quencher-CACCTGGGGGAGTATTGCGGAGGAAGG + anchor), 100 nM annealed; ATP concentration: 500 uM; one replicate
In short: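 The fluorescence ratio divides summed target-cycle Cy3 intensity by summed buffer-cycle Cy3 intensity for each cluster and is averaged per switch-domain sequence. Cy3-labelled switching-strand clusters on a modified Illumina MiSeq flow-cell were annealed to 100 nM quencher-labelled ATP aptamer, then imaged in selection buffer and again after 15 min with 500 uM ATP at 22 °C. Five such cycles were run, with NaOH stripping and re-annealing between them, and clusters outside 100-1000 RFU were excluded.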
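Note: ATP exposure 15 min at 22 °C before imaging.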

| Sequence | switch fluorescence ratio |
| --- | --- |
| ACATGGAAAT | 1.02 |
| ACATGTGGTG | 0.997 |
| ACATGTTCTT | 1.05 |
| ACATTAAAAG | 1.04 |
| ACATTAAGTT | 1.02 |
| ACATTCCG | 1.12 |
| ACATTCGTTC | 0.98 |
| ACATTGACAG | 1.1 |
| ACATTGGTAC | 1.08 |
| ACATTGTCG | 1.02 |
| ACATTGTCTC | 0.974 |
| ACATTTGGGC | 0.954 |
| ACCAACAAT | 1.11 |
| ACCAATAGAT | 1 |
| ACCACACACC | 1.5 |
| ACCACATGT | 1.04 |
| ACCACATTGG | 0.987 |
| ACCACTGTTT | 1.02 |
| ACCAGGAAAT | 1.03 |
| ACCAGGCTAC | 1.19 |
| ACCAGGGAAC | 1.05 |
| ACCAGGGCCA | 1.05 |
| ACCAGGGGGC | 0.881 |
| ACCAGGGGTC | 1.25 |
| ACCAGGTTTT | 1.14 |
| ACCATCACGT | 1.3 |

| Sequence | switch fluorescence ratio |
| --- | --- |
| ACCATCGTCG | 0.99 |
| ACCATGCTTT | 0.996 |
| ACCATGGCCA | 1.02 |
| ACCATGGGGC | 1.03 |
| ACCATTCGG | 0.997 |
| ACCCACGGAA | 1.42 |
| ACCCAGATTT | 1.01 |
| ACCCATCGTT | 0.992 |
| ACCCCCAATT | 1.75 |
| ACCCCCACTC | 1.57 |
| ACCCCCAGAG | 6.13 |
| ACCCCCATAG | 2.71 |
| ACCCCTATCT | 1.11 |
| ACCCGAGAGC | 1.13 |
| ACCCGCCTTA | 1.05 |
| ACCCGGCCTG | 1.01 |
| ACCCGTAGAG | 1.06 |
| ACCCTATGAC | 1.04 |
| ACCCTCGAGC | 0.981 |
| ACCCTCGCGC | 1.82 |
| ACCCTGCG | 1.05 |
| ACCCTGGGG | 1.03 |
| ACCCTGTCGT | 0.985 |
| ACCCTTAAAT | 1.03 |
| ACCCTTACC | 1.38 |
| ACCGAAGTTA | 1.08 |

| Sequence | switch fluorescence ratio |
| --- | --- |
| ACCGACAGCT | 1.46 |
| ACCGACAGGT | 1.03 |
| ACCGACCTG | 1.13 |
| ACCGCAAACA | 3.35 |
| ACCGCATGTT | 1.5 |
| ACCGCATTCT | 2.44 |
| ACCGCCGAGC | 1.88 |
| ACCGCCGCCG | 1.2 |
| ACCGCCGTGT | 1.06 |
| ACCGCGAAGC | 1.1 |
| ACCGCGGGTA | 1.08 |
| ACCGCTAGTC | 2.13 |
| ACCGGGAATG | 0.996 |
| ACCGGGGGG | 0.979 |
| ACCGGGTTTC | 1.03 |
| ACCGTAAATA | 1.44 |
| ACCGTACAGG | 1.16 |
| ACCGTCAATG | 1.1 |
| ACCGTGACGG | 0.98 |
| ACCGTGCTTT | 1.01 |
| ACCGTGTGGT | 0.991 |
| ACCGTGTTCA | 1.01 |
| ACCGTTAAAT | 1.07 |
| ACCGTTAAGC | 1.12 |
| ACCGTTGCCA | 0.998 |
| ACCTAATCTG | 1.13 |

| Sequence | switch fluorescence ratio |
| --- | --- |
| ACCTACACGG | 1.29 |
| ACCTACAGTG | 1.26 |
| ACCTACCAGG | 1.11 |
| ACCTACCTTT | 1.27 |
| ACCTACTGGA | 1.27 |
| ACCTAGAGGT | 0.99 |
| ACCTAGCACG | 1.04 |
| ACCTAGTCGC | 1.11 |
| ACCTAGTTTC | 1.02 |
| ACCTCATGAT | 1.02 |
| ACCTCCGGTC | 1.37 |
| ACCTCGGTTT | 0.999 |
| ACCTCTTACG | 1.02 |
| ACCTCTTTAA | 0.96 |
| ACCTGAACAT | 1.04 |
| ACCTGGAAAG | 0.992 |
| ACCTGGGCCG | 1.08 |
| ACCTGGGCGT | 1.03 |
| ACCTGTTTG | 0.991 |
| ACCTTAAGAT | 1.05 |
| ACCTTACACG | 1.66 |
| ACCTTCGTCG | 2.12 |
| ACCTTGAGC | 1.06 |
| ACCTTGCGGT | 0.981 |
| ACCTTGCTGG | 1.05 |
| ACCTTGGCAT | 1.06 |

| Sequence | switch fluorescence ratio |
| --- | --- |
| ACCTTTATAA | 1.05 |
| ACGAAAAGGT | 1.22 |
| ACGAACCTAT | 1.27 |
| ACGAACGTTA | 1.3 |
| ACGAAGAGT | 1.01 |
| ACGAATGCCC | 1.15 |
| ACGACCACGC | 1.12 |
| ACGACGATAT | 2.11 |
| ACGACGGTGC | 3.05 |
| ACGACGTTGC | 1.77 |
| ACGACTCTGG | 0.981 |
| ACGAGCTACT | 2.09 |
| ACGAGGCCTT | 1.04 |
| ACGATAAACA | 1.11 |
| ACGATAAAGA | 1.04 |
| ACGATAGTGC | 1 |
| ACGATATAGG | 1.15 |
| ACGATGCGCC | 1.06 |
| ACGATGGGCC | 0.996 |
| ACGATTGCCA | 1.03 |
| ACGCAGAAT | 1.19 |
| ACGCCCATTC | 1.3 |
| ACGCCCGCAG | 1.47 |
| ACGCGAGCGT | 1.01 |
| ACGCGCGTGC | 1.02 |
| ACGCGCTCCC | 2.89 |

| Sequence | switch fluorescence ratio |
| --- | --- |
| ACGCGGAGGG | 1.06 |
| ACGCGGGGTC | 1.01 |
| ACGCGTCGTT | 0.991 |
| ACGCGTGACA | 1.02 |
| ACGCGTTCTG | 1.03 |
| ACGCTACCCC | 1.25 |
| ACGCTACTAC | 4.17 |
| ACGCTATGCT | 1.95 |
| ACGCTATGGA | 1.03 |
| ACGCTCGTAG | 1.06 |
| ACGCTTCTAT | 0.998 |
| ACGCTTGGAA | 1.04 |
| ACGCTTGGC | 1.08 |
| ACGGAAGACA | 1.17 |
| ACGGACATGC | 1.27 |
| ACGGAGTTTA | 1.07 |
| ACGGAGTTTC | 1.13 |
| ACGGATCCCA | 1 |
| ACGGCAGGCC | 1.04 |
| ACGGCATCT | 1.1 |
| ACGGCATGTT | 1.05 |
| ACGGCCACAC | 1.25 |
| ACGGCCACGT | 1.03 |
| ACGGCCCTAA | 1.02 |
| ACGGCCGATC | 0.959 |
| ACGGCCTTAC | 2.29 |

| Sequence | switch fluorescence ratio |
| --- | --- |
| ACGGCGAGTG | 0.993 |
| ACGGCGTGAT | 0.976 |
| ACGGCTCTCG | 0.997 |
| ACGGCTTGGT | 0.973 |
| ACGGGATAGG | 0.995 |
| ACGGGATC | 1.08 |
| ACGGGATTAC | 1.45 |
| ACGGGCAGTC | 1.04 |
| ACGGGCGAA | 1 |
| ACGGGCTTAT | 0.988 |
| ACGGGGATAC | 2.28 |
| ACGGGGCAGG | 1.07 |
| ACGGGGGATC | 1 |
| ACGGGGTAGG | 1.01 |
| ACGGGTGCAG | 1.04 |
| ACGGGTGCTA | 1 |
| ACGGTAAGGG | 1.12 |
| ACGGTACAAG | 1.4 |
| ACGGTAGAGC | 1.01 |
| ACGGTAGGCT | 1.03 |
| ACGGTAGTGT | 0.935 |
| ACGGTATCTG | 0.994 |
| ACGGTATTCA | 1.1 |
| ACGGTCTGCC | 1.01 |
| ACGGTGAAGG | 0.984 |
| ACGGTGATAA | 1.01 |

| Sequence | switch fluorescence ratio |
| --- | --- |
| ACGGTGCATT | 1.09 |
| ACGGTGCTT | 1.13 |
| ACGGTGGTTT | 0.988 |
| ACGGTTGGCA | 0.981 |
| ACGTAACGGT | 1.24 |
| ACGTAACTT | 1.28 |
| ACGTAAGGGA | 1.08 |
| ACGTACGCCA | 1.51 |
| ACGTACTTTT | 1.19 |
| ACGTAGACCA | 1.11 |
| ACGTAGATCA | 1.08 |
| ACGTAGCGGT | 2.48 |
| ACGTAGTCGT | 1.04 |
| ACGTATACT | 1.37 |
| ACGTCGCAGA | 1.08 |
| ACGTCGTGGA | 1.05 |
| ACGTCTAGTA | 1 |
| ACGTGCAACA | 0.989 |
| ACGTGCTTGT | 1.02 |
